The list shows a part of the results. The data describe in vitro nicking of single-stranded DNA by Rep domains (1 h at 37 °C, 3 µM enzyme); the outer parts of the 90-letter strands are left off. Values are log2 of uncut reads against the no-enzyme pool; more negative means more cut, near 0 not cut, and no call is made. Shares of all reads are compared; values above 0 arise when much of the pool is cut.
Tested on: T1, Rep nickase domain of porcine circovirus 2
T1 sequence (residues 2-116 of Rep, tag left off): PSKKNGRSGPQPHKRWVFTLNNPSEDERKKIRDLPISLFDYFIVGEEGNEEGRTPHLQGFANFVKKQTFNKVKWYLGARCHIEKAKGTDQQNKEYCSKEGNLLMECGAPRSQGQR
Test: uncleaved DNA left, log2 of reads against the no-enzyme library (log2 ratio); higher = less cleavage (more negative = more Rep cleavage of the k-mer); sequences stand for … in CTCGTCCG…ACCGGAGA
Experimental: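 A pool of 90-nt single-stranded DNAs with seven random bases just before the constant AC of the nick site (name = the seven bases) was cut by 3 µM recombinant His6-SUMO-tagged Rep nickase domain (300 nM DNA, 50 mM HEPES pH 8.0, 50 mM NaCl, 1 mM MnCl2, 1 h, 37 °C, three replicates). Uncut DNA was amplified and sequenced.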

Row | Sequence | uncleaved DNA left (log2)
1 | AGGAGAG | 0.301
2 | GGCAGTG | 0.144
3 | AGCTTCA | -1.24
4 | GGCACTT | 0.0817
5 | ATCCGCA | -0.0327
6 | ATTCTGT | -0.378
7 | ACGGACC | 0.165
8 | ACCCTTG | 0.0621
9 | GTAAGAT | 0.0959
10 | ACGGGAG | 0.189
11 | AAGCGTT | -3.16
12 | ATTTACT | -3.83
13 | ATTTGTG | 0.236
14 | AATGGAA | 0.149
15 | TATCTTC | -0.0771
16 | ATCCCCT | -0.13
17 | GCGTAAG | 0.0969
18 | GCTATTG | -0.0242
19 | GATGAGA | 0.163
20 | ACGTCCA | -0.318

Row | Sequence | uncleaved DNA left (log2)
21 | CGTGAAT | -0.24
22 | GACTGGT | -2.53
23 | CTCTATC | -0.136
24 | TAGATCA | -1.79
25 | CGGCCCA | -0.188
26 | GGATGTT | -2.09
27 | AGTATGC | 0.226
28 | GTAAATG | 0.124
29 | GTCGGTC | 0.0333
30 | CCTCCCG | -0.0297
31 | TTGTTTC | -0.194
32 | CGATTTC | -0.0235
33 | TCCTGCT | -2.98
34 | TTTTGGA | 0.00394
35 | GGCCACG | 0.199
36 | GTCACGA | 0.157
37 | CAGTGGG | 0.134
38 | ACAGAGA | 0.0967
39 | ATATTCG | 0.179
40 | CTCCGGC | -0.04

Source: the supplement of paper PMC7826260
